# Measured values published in PubChem BioAssay AID624202 (National Center for Advancing Translational Sciences (NCATS), 2012).
# In all, about 380,000 compounds went through this assay and about 4,000 (1.1%) were called active. Inconclusive means that the source gave no clear call. Such entries were picked first, then a sample of the others. The call rests on the fitted dose curve; in most records, active means well fitted activation curve with a large enough effect; inconclusive means small, poorly fitted or top-dose-only effect; inactive means no such curve, though single readings can be large or run the other way. A potency beside an inconclusive call is a rough fit, not a confirmed value.
# Test: qHTS Assay to Identify Small Molecule Activators of BRCA1 Expression; further: nearly all actives have a fitted effect of over 80% in size
# Conditions: MCF7-BRCA1-FFLuc reporter, luminescence, 48 h; activation: at 46.1 µM (top of the series), scaled: vehicle 0%, 10 µM genistein 100% unless noted
# Procedure, shortened: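 48 h compound treatment of MCF7-BRCA1-FFLuc cells (phenol-red free MEM, 37 °C), then 15 min with luciferase substrate and luminescence imaging.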
# Potency means the concentration at half of the fitted maximal effect; tags describe the fitted curve by direction and shape.
Structure (SMILES),activation,Potency
COC(=O)N/N=C/c1cc(Cl)c(OCc2ccccc2F)c(OC)c1,inactive: -2.23%,–
Cc1nn(-c2ccccc2)c(C)c1C(=O)Oc1ccccc1,–,"inconclusive: 17.8 µM [activator, single point]"
CNS(=O)(=O)c1cn(CC(=O)NCc2cccc(OC)c2)cc1S(=O)(=O)NC,inactive: -2.66%,–
CCN(CC)c1ccc(NC(=S)NCC2CCCO2)cc1 (stereo unspecified),inactive: 32.4%,–
CC(NC(=O)c1sc2ccccc2c1Cl)C1CCCO1 (stereo unspecified),–,"inconclusive: 7.08 µM [activator, partial curve, poor fit]"
COc1cccc(C(=O)Nc2cc3c(cc2Br)OCCCO3)c1,–,"inconclusive: 2.51 µM [activator, partial curve, poor fit]"
O=C(c1ccc([N+](=O)[O-])o1)N1CCN(c2nc3c(F)cc(F)cc3s2)CC1,inactive: -85.8%,–
Cc1ccc2nc(NC(=O)c3ccc(Cl)s3)sc2c1,–,"inconclusive: 1.26 µM [activator, full curve, poor fit]"
Fc1ccc2nc(Nc3nc4cc5c(cc4s3)OCO5)sc2c1,–,"inconclusive: 2.51 µM [activator, partial curve, poor fit]"
COc1cccc(-n2c(SCC(=O)Nc3c(C)cc(C)cc3C)nc3c([nH]c4ccccc43)c2=O)c1,inactive: -56.2%,–
Cc1ccc(OCc2cc(C(=O)NCC(C)(C)N3CCOCC3)no2)cc1C,–,"inconclusive: 0.891 µM [activator, full curve, poor fit]"
Cc1cnc(C(=O)Nc2ccccc2F)cn1,–,active: 5.01 µM
Cc1ccnc2nc(C(=O)Nc3nccs3)nn12,–,"inconclusive: 7.08 µM [activator, partial curve, poor fit]"
COCCNC(=O)c1cc2oc3ccccc3c2n1C,–,active: 10 µM
C/C(=N\Nc1ccccc1[N+](=O)[O-])c1ccc(N2CCOCC2)cc1,–,"inconclusive: 1.26 µM [activator, full curve, poor fit]"
COc1ccccc1/C=C/C(=O)Nc1cccnc1Cl,–,"inconclusive: 35.5 µM [activator, single point]"
CCN(CC)S(=O)(=O)c1ccc2nc(NC(=O)c3ccco3)sc2c1,–,active: 11.2 µM
CCOC(=O)CSc1nc2cc(OC)c(OC)cc2cc1C#N,–,"inconclusive: 6.31 µM [activator, partial curve, poor fit]"
CCN(CCS(=O)(=O)c1ccc(Cl)cc1)C(=O)Nc1ccccc1,inactive: -4.12%,–
COc1ccc2c(c1)Cc1sc(NC(C)=O)nc1-2,–,"inconclusive: 0.562 µM [activator, full curve, poor fit]"
Cc1ccc(N=C2NC(=O)/C(=C/c3cccn3C)S2)cc1,–,active: 3.55 µM
COc1ccc(C2=C(N)c3ccccc3C2=O)cc1,–,"inconclusive: 5.01 µM [activator, full curve, poor fit]"
Cc1c(C)c2ccc(OS(C)(=O)=O)cc2oc1=O,–,"inconclusive: 17.8 µM [activator, single point]"
Cc1cccc(C(=O)Nc2sc3c(c2C#N)CCCCC3)c1,–,"inconclusive: 0.631 µM [activator, full curve, poor fit]"
Cn1c(C(=O)NCCc2c[nH]c3ccccc23)cc2sccc21,–,"inconclusive: 3.16 µM [activator, full curve, poor fit]"
COc1cc(C(=S)N2CCCC2)ccc1OCc1ccccc1,–,"inconclusive: 12.6 µM [activator, partial curve, poor fit]"

Structure (SMILES),activation,Potency
Cc1noc(C)c1CN(C(=S)NC1CC1)c1ccccc1,inactive: -2.56%,–
COc1ccc(/C=N/Nc2nc3ccccc3c(=O)[nH]2)cc1,–,"inconclusive: 10 µM [activator, partial curve, poor fit]"
CC(C)(C)C1=CC(=O)C(N2CCOCC2)=CC1=O,inactive: 4.67%,–
Cc1cccc(-c2nc(C#N)c(NCc3ccco3)o2)c1,–,"inconclusive: 12.6 µM [activator, partial curve, poor fit]"
Cc1nc(SCc2ccc([N+](=O)[O-])cc2)n[nH]1,–,"inconclusive: 10 µM [activator, partial curve, poor fit]"
O=C1c2ccccc2NC(c2ccc(Br)o2)N1O (stereo unspecified),–,active: 11.2 µM
O=C(O)c1ccc(N/N=C2/CCCc3ccccc32)cc1,–,active: 7.08 µM
COc1ccc(NC(=O)c2cccc([N+](=O)[O-])c2)cc1,–,"inconclusive: 11.2 µM [activator, partial curve, poor fit]"
Cc1ccccc1CNC(=O)Cc1cccs1,–,active: 12.6 µM
Cn1c(-c2ccc3c(c2)OCO3)cnc1NCc1ccccc1Cl,–,"inconclusive: 7.94 µM [activator, partial curve, poor fit]"
N/C(=N\NC(=O)c1cccs1)c1cc2cc(Cl)ccc2oc1=O,–,"inconclusive: 35.5 µM [activator, single point]"
Cc1ccn2c(=O)c(C(=O)NCCN3CCOCC3)c(O)nc2c1,inactive: 6.47%,–
CN(C)C(=O)COC(=O)c1ccccc1Nc1ccc(SC(F)F)cc1,–,"inconclusive: 12.6 µM [activator, partial curve, poor fit]"
O=C1C=C(Nc2ccc(F)cc2)c2ccccc2C1=O,inactive: -96.2%,–
CC(C)=CC(=O)Nc1nnc(-c2ccccc2C)s1,–,active: 3.55 µM
COc1cc(SC)ccc1C(=O)Nc1cccc(C)n1,–,"inconclusive: 2 µM [activator, full curve, poor fit]"
CN(C)c1ccc(/C=N/NC(=O)c2ccc3c(c2)OCO3)cc1,–,"inconclusive: 17.8 µM [activator, partial curve, poor fit]"
O=C1CC(c2ccc(O)cc2)Oc2ccccc21 (stereo unspecified),–,"inconclusive: 11.2 µM [activator, partial curve, poor fit]"
C#Cc1ccc([C@H]2C=C(C(=O)OCC=C)O[C@@H](OCC)[C@@H]2CCCO)cc1,inactive: -0.257%,–
Cc1ccc(COc2ccc3c(c2)OCO3)cc1,–,"inconclusive: 10 µM [activator, partial curve, poor fit]"
Cc1ccc(O)c(CNc2ccccn2)c1,–,active: 15.8 µM
C/C(=N\NC(=O)c1nn(C)c(C)c1Br)c1cccc(NC(=O)c2ccc(F)cc2)c1,–,"inconclusive: 4.47 µM [activator, full curve, poor fit]"
Cc1cc(/C=C2/SC(=O)N(CC(=O)OC(C)C)C2=O)c(C)n1C,–,active: 2.51 µM
COc1ccc(C(=O)n2c(N)nc3ccccc32)cc1OC,–,"inconclusive: 7.08 µM [activator, partial curve, poor fit]"
O=C(Cc1ccccc1[N+](=O)[O-])NCc1ccccc1Cl,–,"inconclusive: 2.82 µM [activator, full curve, poor fit]"
CCOc1ccc(OCc2ccc(C(=O)Nc3cccnc3)o2)cc1,inactive: 9.72%,–

Structure (SMILES),activation,Potency
Clc1ccccc1CSc1nc2ccncc2[nH]1,–,"inconclusive: 14.1 µM [activator, partial curve, poor fit]"
O=C(Nc1ccc(N2CCOCC2)cc1)c1cccnc1,–,"inconclusive: 8.91 µM [activator, partial curve, poor fit]"
CC(C)(C)CC(=O)O/N=C(\N)c1ccccn1,–,active: 5.01 µM
Cc1cccc(-n2ncc3c(NC4CCCCC4)ncnc32)c1,–,"inconclusive: 1.26 µM [activator, full curve, poor fit]"
Cc1ccc(C2=NN(S(C)(=O)=O)C(c3ccc4c(c3)OCO4)C2)cc1 (stereo unspecified),–,"inconclusive: 0.631 µM [activator, full curve, poor fit]"
O=C(N/N=C/c1cc(Br)cs1)c1ccc2c(c1)OCCO2,–,"inconclusive: 1.41 µM [activator, full curve, poor fit]"
O=C(c1ccc(S(=O)(=O)N2CCCCCC2)cc1)N1CCN(c2ccccn2)CC1,inactive: -7.46%,–
O=C(/C=C/c1ccccc1)Nc1sc2c(c1C(=O)O)CCC2,–,"inconclusive: 14.1 µM [activator, partial curve, poor fit]"
C/C(=N\Nc1ccc(Cl)c(C(=O)O)c1)c1cccc([N+](=O)[O-])c1,–,active: 14.1 µM
CC1(C)Cc2c(cnn2-c2cccc(F)c2)C(NC(=O)CCc2cnccn2)C1 (stereo unspecified),inactive: 2.88%,–
CCn1c(COc2ccc(OC)cc2)nc2ccccc21,–,active: 11.2 µM
CCNC(=O)c1sc(=S)n(-c2ccc(C)cc2)c1N,inactive: 11.1%,–
CC(=O)c1ccc(NC(=O)C2CCN(S(=O)(=O)c3cccs3)CC2)cc1,–,active: 8.91 µM
O=C(NC(=S)Nc1ccc2c(c1)OCO2)c1ccccc1,–,"inconclusive: 2.82 µM [activator, full curve, poor fit]"
Cn1c(SCc2ccccc2)nnc1-c1c[nH]c2ccccc12,–,active: 11.2 µM
O=C1OCC(CO)(CO)N=C1NNc1ccccc1[N+](=O)[O-],inactive: -0.402%,–
Cc1cc(C)c2c(CCl)cc(=O)oc2c1,inactive: -54.9%,–
O=C(COc1ccccc1)Nc1cccc(-c2nnc(-c3ccccc3)o2)c1,–,"inconclusive: 2.82 µM [activator, partial curve, poor fit]"
O=C(c1cc(-c2cccc(Br)c2)nc2ccccc12)N1CCCC1,inactive: 6.86%,–
CN(C)S(=O)(=O)c1ccc(C(=O)Nc2ccc3ncccc3c2)cc1,–,active: 12.6 µM
COc1cccc(C(=O)NCCC2=CCCCC2)c1,inconclusive: 65.4% [activator],–
O=C(NCC1COc2ccccc2O1)c1ccc(F)c(S(=O)(=O)N2CCOCC2)c1 (stereo unspecified),inactive: -20.7%,–
Cc1ccc(CSc2nnc(-c3ccco3)o2)cc1,–,active: 5.01 µM
CC(C)N1CN=C(Nc2nc3ccccc3o2)NC1,–,"inconclusive: 28.2 µM [activator, partial curve, poor fit]"
